Data reported in PubChem BioAssay AID652106 (National Center for Advancing Translational Sciences (NCATS), 2013).
The campaign covered roughly 370,000 compounds. About 500 (0.14%) were called active. Inconclusive results, whose numbers are uncertain, are shown with a selection of clear calls. Calls follow the shape of the dose curve; as a rule, active = well fitted activation curve with a large enough effect; inconclusive = small, poorly fitted or top-dose-only effect; inactive = no such curve, though single readings can be large or run the other way. Where the call is inconclusive, the potency comes from a doubtful curve fit.

experiment: qHTS of alpha-syn Inhibitors; conditions: Yeast expressing alpha-synuclein, BacTiter-Glo, 24 h; Potency: growth rescue unless noted; growth rescue (activation): at 46.1 µM (top of the series) unless noted; also: nearly all actives have a fitted effect of over 65% in size; as to growth rescue (activation): % of control where 0% means no effect
Summary of the method: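 Rescue of yeast growth: cells expressing toxic alpha-synuclein, induced in galactose at OD600 0.02, incubated with compound 24 h at 30 C. ATP luminescence quantified growth; inhibitors of toxicity appear as activators.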
Potency is read from the fitted curve at half-maximal effect; tags tell the direction and shape of the fitted curve.

Potency, inactive:
CC(=O)c1nnn(-c2ccc(F)cc2F)c1C, Cc1cccc(N2CCN(C(=O)CCNS(=O)(=O)c3ccc4c(c3)CCN4C(=O)C3CC3)CC2)c1C, COCCNC(=O)C1(C)CCN(C(=O)c2ccc(OC)c(F)c2)C1 (configuration not stated), COc1ccc(/C=C(\C)C(=O)c2c(C)cc(C)[nH]c2=O)cc1, COc1ccc(Cc2nnc(NC(=O)Cc3cccs3)s2)cc1OC, CCCN1C(=O)/C(=c2\sc3nc(=O)c(Cc4ccc(C)cc4)nn3c2=O)c2ccccc21, COCCNC(=S)N/N=C/c1c2ccccc2cc2ccccc12, COc1ccc(CN(C(=O)c2ccc(-c3ccccc3)[nH]2)C(C(=O)NCC2CCCO2)c2ccc(C)o2)cc1 (configuration not stated), CCOC(=O)/C(=C(/C)N)C1CC(=O)NC1=O (configuration not stated), CCOc1ccc(OCC(=O)c2c(O)c3ccccc3oc2=O)cc1, O=C(NNc1nc2cc3c(cc2s1)OCO3)c1ccc(F)cc1, CC(C)(C)c1ccc(OCCC(=O)Nc2ccc(N3CCOCC3)cc2N2CCOCC2)cc1, O=C(CCSc1ccc(Br)cc1)c1ccc(O)cc1, CCN(CC)S(=O)(=O)c1ccc(OC)c(NC(=O)C(C)Oc2ccc3c(C)cc(=O)oc3c2)c1 (configuration not stated), CCCCOC(=O)c1ccc(Nc2ncnc3[nH]ncc23)cc1, C=CCn1c(=NC(=O)c2ccc(S(=O)(=O)N3CCc4ccccc4C3)cc2)sc2cc(S(N)(=O)=O)ccc21, Cn1c(N)c(C(C[N+](=O)[O-])c2c(F)cccc2Cl)c(=O)n(C)c1=O (configuration not stated), COc1ccc(-c2nc(=N)sn2-c2ccccc2)cc1, CC1(C(=O)Nc2cnc3ccccc3c2)CCN1Cc1cc2ccccc2o1 (configuration not stated), CC1CCCN(S(=O)(=O)c2ccc3c(c2)n(C)c(=O)c(=O)n3C)C1 (configuration not stated), COC(=O)c1sccc1NC(=O)Nc1cccc(Cl)c1Cl, O=C(Nc1ccccc1)/C(=C/c1ccccc1)c1ccccc1, Cc1ccccc1OCC(=O)Nc1ccccc1N1CCC(C)CC1, C[C@H](CO)N1C[C@H](C)[C@@H](CN(C)S(=O)(=O)c2cccc(F)c2)OCc2cn(nn2)CCCC1=O, CCOC(=O)c1sc(NCCNc2nc(C)c(C(=O)OCC)s2)nc1C

Potency, active:
COc1ccc(-c2nc3ccccc3c(=O)n2O)cc1 31.6 µM, Cc1cc(-c2ccco2)c(C#N)c2nc3ccccc3n12 0.562 µM

Potency, inconclusive:
COc1ccc(CNS(=O)(=O)c2c(C(=O)N3CCCCCC3)c(C)n(C)c2C)cc1 20 µM [activator, single point], CCc1c(C)sc(NC(=S)N2CC(C)OC(C)C2)c1C(=O)OC (configuration not stated) 4.47 µM [activator, single point], COc1ccccc1OCC(=O)N/N=C/C=C/c1ccc([N+](=O)[O-])o1 12.6 µM [activator, partial curve], CC1(c2cccc(Br)c2)NC(=O)N(CC(=O)c2ccc3c(c2)OCCO3)C1=O (configuration not stated) 12.6 µM [activator, partial curve], Cc1cccc(/C=C2\Sc3ccc(C(=O)N4CCCCC4)cc3N(C)C2=O)c1 12.6 µM [activator, single point], COc1cccc(NC(=O)C2(C)CCN2C(=O)CCc2ccc(Cl)cc2Cl)c1 (configuration not stated) 31.6 µM [activator, single point], CCCCN(CC(=O)NCc1ccc(F)cc1)C(=O)c1ccco1 31.6 µM [activator, single point], NC(=O)/C(N=Nc1ccccc1)=N/Nc1ccccc1 35.5 µM [activator, single point], CCN(Cc1ccccc1)S(=O)(=O)c1ccc2[nH]c3c(c2c1)CCCCC3 10 µM [activator, partial curve], O=C(Nc1ccc(F)cc1)N1CCc2ccccc2C1 5.62 µM [activator, single point], COc1ccc2c(c1)S/C(=C\C(=O)c1ccncc1)N2C 5.62 µM [activator, single point], CC(=O)Nc1cc(N=Cc2ccc(O)cc2O)c(Cl)cc1Cl 17.8 µM [activator, single point], COc1ccc(C(=O)N2CCCCC2c2cc(C(=O)Nc3ccc(F)c(Cl)c3)no2)cc1 (configuration not stated) 11.2 µM [activator, partial curve], COCCNC(=O)c1cc2cc3ccc(OC)cc3nc2o1 28.2 µM [activator, single point], O=C(/C=C/c1ccccc1)OCCN1C(=O)c2ccccc2C1=O 22.4 µM [activator, single point], CCCOc1ccc2c3c(c(=O)oc2c1)CCCC3 12.6 µM [activator, single point], CCN1C(=O)/C(=C2/C(=O)N3c4c(cc(OC(C)=O)cc42)C(C)=CC3(C)C)SC1=S 3.55 µM [activator, single point], Cc1cc(C)n(CC(O)COc2ccc(C(C)C)c(C)c2)n1 (configuration not stated) 12.6 µM [activator, partial curve], CC(C)(C)C(=O)C(CO)(Oc1ccc(Cl)cc1)n1cncn1 (configuration not stated) 3.55 µM [activator, partial curve], O=[N+]([O-])c1ccc(CN2CC(N3CCN(CCO)CC3)CS2(=O)=O)cc1 (configuration not stated) 5.62 µM [activator, single point], COc1ccc(F)cc1C(=O)C1CCCN(Cc2ccc3c(c2)OCCO3)C1 (configuration not stated) 35.5 µM [activator, single point], O=C(/C=C/c1cn(CC(O)CN2CCc3ccccc32)c2ccccc12)c1ccc(Br)cc1 (configuration not stated) 31.6 µM [activator, single point], CC[C@@H]1Cc2[nH][nH]c(=O)c2[C@H](c2ccc(Cl)cc2)O1 11.2 µM [activator, partial curve], CCN1C(=O)CSc2ccc(C(=O)OC)cc21 31.6 µM [activator, single point], O=C(OCn1nnc2ccccc2c1=O)c1ccc(N2CCOCC2)c([N+](=O)[O-])c1 28.2 µM [activator, single point], O=c1c2sc(-c3ccccc3)cc2nc2n1CCC2 3.16 µM [activator, partial curve, poor fit], COc1ccc(NC(=O)N(C)[C@H]2C[C@H]3c4[nH]c5ccccc5c4CCN3C[C@H]2[C@H](C)O)cc1 5.62 µM [activator, single point], Cc1[nH]c(-c2ccc(F)cc2)cc1C(=O)N1CCN(c2ccc(Cl)cc2)CC1 31.6 µM [activator, single point], CC(C)(C)C(=O)C[n+]1ccccc1 3.16 µM [activator, single point], COc1c(C)cc(C(=O)C2CCCN(C(=O)C3=C(C)OCCO3)C2)cc1C (configuration not stated) 25.1 µM [activator, single point], O=C(Cc1c[nH]c2ccccc12)NCc1ccc(Cl)cc1Cl 22.4 µM [activator, single point], COc1ccc(S(=O)(=O)N2CCN(C(=O)c3ccc([N+](=O)[O-])o3)CC2)cc1 6.31 µM [activator, single point], CC(C)(C)c1ccc(Oc2ccc(N)cc2)cc1 35.5 µM [activator, single point], CC1(C)CC(=O)C=C(c2cccc(OC(=O)c3ccc(Br)cc3)c2)C1=O 5.62 µM [activator, single point], O=C(/C=C/c1ccc(Br)cc1)N1CCN(c2cccc(C(F)(F)F)c2)CC1 25.1 µM [activator, single point], C/C(=N\O)c1ccc2c(c1)CC(C)O2 (configuration not stated) 35.5 µM [activator, single point], C=C1C=C(C)n2ncc(C(=O)Nc3cccc4cnccc34)c2N1 28.2 µM [activator, single point], O=C(NCc1ccc2c(c1)OCO2)c1ccc(COc2cccc(Cl)c2)o1 25.1 µM [activator, single point], CC(=O)c1cc2ccccc2c2ccccc12 20 µM [activator, single point], O=C(NC(c1ccccc1)c1ccccc1)c1ccc(CO)cc1 5.62 µM [activator, single point], OC(c1ccc(F)c(F)c1)c1nc(-c2cc(F)cc(F)c2)cs1 (configuration not stated) 12.6 µM [activator, single point], COc1ccc2c(c1)C(C)=CC(C)(C)N2S(=O)(=O)c1ccc(C)cc1 22.4 µM [activator, single point], CC(C)(C)N(Cc1ccccc1)C(=O)COC(=O)c1ccc2ccccc2n1 20 µM [activator, single point], COc1ccc2ccc(O)c(CN(C)CC(=O)Nc3ccccc3C(F)(F)F)c2c1 12.6 µM [activator, single point]

Growth rescue (activation), inconclusive:
COc1cccc2c1C(=O)c1c(O)c3c(c(O)c1C2=O)CC(O)(C(=O)CO)CC3OC1CC(N(C)C)C(O)C(C)O1 (configuration not stated) -75.6% [activator]
